Measured values as given in PubChem BioAssay AID485281 (National Center for Advancing Translational Sciences (NCATS), 2010).
The campaign covered roughly 350,000 compounds. About 260 (0.074%) were called active. The shares of active, inactive and inconclusive entries below differ from those in the screen. Calls follow the shape of the dose curve; as a rule, active = well fitted inhibition curve with a large enough effect; inconclusive = small, poorly fitted or top-dose-only effect; inactive = no such curve, though single readings can be large or run the other way. A potency beside an inconclusive call is a rough fit, not a confirmed value.

target: Ferritin light chain (Equus caballus) (UniProt P02791); assay: qHTS Assay for Identification of Novel General Anesthetics; conditions: apoferritin/1-aminoanthracene competitive binding, fluorescence; activity change, negative = displacement: at 77.5 µM (top of the series); also: nearly all actives have a fitted effect of over 20% in size
In short: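 Horse-spleen apoferritin (10 uM) was mixed with 50% saturated 1-aminoanthracene in PBS, exposed to compounds for 10 min at room temperature, and read for fluorescence (ex 380 nm, em 535 nm). Competitive displacement was fitted with a four-parameter Hill equation.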
% is scaled to controls: 0 for no effect and ±100 for the full control effect; potency is read from the fitted curve at half-maximal effect; tags tell the direction and shape of the fitted curve.

Sequence of UniProt P02791 (P02791 whole entry, looked up): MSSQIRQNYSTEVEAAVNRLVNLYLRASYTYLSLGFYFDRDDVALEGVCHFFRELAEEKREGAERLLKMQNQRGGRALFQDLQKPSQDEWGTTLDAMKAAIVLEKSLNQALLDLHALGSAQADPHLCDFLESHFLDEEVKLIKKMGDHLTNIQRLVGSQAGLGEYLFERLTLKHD

Row | SMILES | Potency | activity change, negative = displacement
1 | O=C(NC12CC3CC(CC(C3)C1)C2)c1ccc(Br)o1 | inconclusive: 39.8 µM [inhibitor, partial curve] | –
2 | CN(C)CCNC(=O)c1ccc2c(c1)NC(=O)C(CS(=O)(=O)Cc1cccc(Br)c1)N2 (configuration not stated) | inconclusive: 25.1 µM [inhibitor, partial curve] | –
3 | CC(C)/C(O)=C1/C(=O)OC(c2ccoc2)[C@@]2(C)C(O)C(O)[C@@]34OC5(C)OC67CC(C)(C(O)[C@@]6(O)C(O)[C@@]3(O5)C12)C(CC(=O)O)[C@@]74C (some centres not stated) | – | inactive: -16.7%
4 | CC1(C)CC(=O)c2c(nc3ccccc3c2N)C1 | – | inactive: -3.46%
5 | COc1ccc(S(=O)(=O)Nc2ccc(-c3ccc(N4CCCC4)nn3)cc2)cc1F | – | inactive: 3.46%
6 | COc1cc(CNc2ccc(N3CCCCC3)cc2)ccc1OCC(=O)NC(C)(C)C | inconclusive: 25.1 µM [inhibitor, partial curve] | –
7 | Cc1ccccc1Cc1c(C)nc2nc(SCC(=O)N(C)c3ccccc3)nn2c1C | inconclusive: 56.2 µM [inhibitor, partial curve] | –
8 | O=C(Nc1ccc(N2CCOCC2)c(Cl)c1)c1ccccc1F | inconclusive: 39.8 µM [inhibitor, partial curve] | –
9 | Cc1ccc(OC(=O)C23CC4CC(CC(C4)C2)C3)c(C)n1 | inconclusive: 44.7 µM [inhibitor, single point] | –
10 | CCCCn1c(-c2ccccc2)nnc1-c1ccccc1 | inconclusive: 17.8 µM [inhibitor, partial curve] | –
11 | Cc1oc(-c2ccccc2)nc1CS(=O)CC(=O)NC1CCCCCC1 (configuration not stated) | inconclusive: 11.2 µM [inhibitor, partial curve] | –
12 | Cc1ccsc1C(=O)OCC(=O)c1cc(C)n(CC2CCCO2)c1C (configuration not stated) | inconclusive: 35.5 µM [inhibitor, single point] | –
13 | CCc1ccc(-c2cc(C(=O)N/N=C/c3ccccn3)[nH]n2)cc1 | inconclusive: 35.5 µM [inhibitor, single point] | –
14 | CCCN(C(=O)Cn1cnc2sc(C)c(S(=O)(=O)N3CCN(c4ncccn4)CC3)c2c1=O)c1cccc(C)c1 | inconclusive: 6.31 µM [inhibitor, full curve, poor fit] | –
15 | O=C(Nc1ccc(N2CCCCC2)c(Cl)c1)c1ccc(N2CCOCC2)c([N+](=O)[O-])c1 | inconclusive: 7.08 µM [inhibitor, partial curve] | –
16 | Cc1onc(-c2c(Cl)cccc2Cl)c1C(=O)N1CCCc2ccccc21 | inconclusive: 17.8 µM [inhibitor, partial curve] | –
17 | Cc1ccc(C(=O)Oc2ccccc2N2CCOCC2)cc1 | – | inactive: -2.12%
